Results published in PubChem BioAssay AID1347041 (National Center for Advancing Translational Sciences (NCATS), 2019).
Where “and” joins values, the source holds several entries; their conditions need not be identical. Equal values may be shown once. Hit rate of the full screen: of about 480,000 compounds, about 740 (0.15%) were called active. Inconclusive means that the source gave no clear call. Such entries were picked first, then a sample of the others. Rule as the data show it: active = activity change below about -30%; inconclusive = mostly about -25% to -30%; inactive = weaker than that. Some structures have more than one record in an assay (separate samples or runs), and their calls can disagree.

The compounds below were run against L-lactate dehydrogenase A chain (Homo sapiens) (UniProt P00338) (assay: qHTS assay for inhibitors of human lactate dehydrogenase). Settings: purified LDHA, NADH/diaphorase-resazurin fluorescence; hits give low values.
Method in brief: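 Enzyme activity of human lactate dehydrogenase 5 (2 nM; 0.06 mM NADH, 0.2 mM pyruvate, 5 min, RT) is measured via a resazurin/diaphorase fluorescence readout of residual NADH.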
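Also: values are at about 110 or 230 µM; plate controls were DMSO wells for no effect and wells without enzyme for full effect.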

| Compound | activity change |
| --- | --- |
| CCc1sc(C(=O)NC(C)CC)cc1C (configuration not stated) | inconclusive: -25.7% |
| O=C(CCc1ccccc1)NC1(C(F)(F)F)C(=O)Nc2c1c(=O)[nH]c(=O)n2Cc1ccccc1 (configuration not stated) | active: -35% |
| CCN1CCCC1CNC(=O)c1nc(-c2cccc3[nH]ccc23)no1 (configuration not stated) | inconclusive: -26.9% |
| COC(=O)c1cc(-c2ccco2)nc2c(Cl)cccc12 | inactive: -7.9% |
| CCCNC(=O)CNC(=O)c1nn(-c2ccccc2)c(=O)c2ccccc12 | inconclusive: -27.5% |
| CCN(CC)S(=O)(=O)c1ccc(C)c(NC(=O)CN2CCN(C)CC2)c1 | inconclusive: -29.4% |
| CC1CCCN(CCOCCOc2ccccc2-c2ccccc2)C1 (configuration not stated) | inactive: -8.67% |
| Cc1ccc2[nH]cc(CCNC(=O)/C=C/c3ccccc3)c2c1 | inactive: 4.48% |
| CCCCn1cnc2cc(NCc3ccc(OCC)cc3)ccc21 | inactive: 22.6% |
| Cc1ccc2c(=O)cc(C(=O)Nc3ccc(S(=O)(=O)Nc4onc(C)c4C)cc3)oc2c1C | inconclusive: -26.9% |
| CN(Cc1ccccc1)C(=O)c1cc(=O)[nH]c2ccccc12 | inconclusive: -26.1% |
| Cc1cc(/C=C(/C#N)c2nc3ccccc3n2C)cc(C)c1O | active: -32.2% |
| O=C(Nc1nc(-c2ccccn2)cs1)c1ccc([N+](=O)[O-])o1 | inactive: 1.68% |
| O=C(NCC(c1ccco1)N1CCOCC1)c1cc(=O)c2cc(Br)ccc2o1 (configuration not stated) | active: -30.9% |
| CN(C)S(=O)(=O)c1ccc(C(=O)NCC[N+]2(C)CCCCCC2)o1 | inconclusive: -27.1% |
| C/C=C/c1ccc(OCCn2cncn2)c(OC)c1 | inconclusive: -26.5% |
| Cc1ccc(-c2nc(SCC(=O)N3CCCC3c3ccc4c(c3)OCCCO4)n[nH]2)cc1 (configuration not stated) | inactive: -2.88% |
| CC(C)Cc1noc(CN2CCC(c3nc4cc(Cl)ccc4o3)CC2)n1 | inconclusive: -26.2% |
| Cc1c[nH]cc1C(=O)OCC#Cc1ccccc1 | inconclusive: -28.1% |

| Compound | activity change |
| --- | --- |
| Cc1cccc(N(CC(=O)Nc2c(C)n(C)n(-c3ccccc3)c2=O)S(C)(=O)=O)c1C | inactive: 1.82% |
| COc1ccc(CNc2oc(-c3ccco3)nc2C#N)cc1 | inconclusive: -26.8% |
| CCOC(=O)CSc1nnc2n(-c3ccccc3)c(=O)c3c4c(sc3n12)CC(C(C)(C)C)CC4 (configuration not stated) | inactive: 4.71% |
| CSc1ccccc1NC(=O)CN(C)C(C)C(=O)NCc1ccc2c(c1)OCO2 (configuration not stated) | active: -46.6% |
| Cc1cc(C(=O)OCC(=O)c2cccc3ccccc23)c2ccccc2n1 | active: -35.4% |
| O=C1ON=C(c2ccc(Cl)c([N+](=O)[O-])c2)/C1=C/c1cccc([N+](=O)[O-])c1O | active: -31% |
| COc1cc(S(=O)(=O)Nc2ccc3ccccc3c2)ccc1NC(C)=O | inconclusive: -26.1% |
| CCN(CC(=O)Nc1c(F)cccc1F)C(=O)c1ccc(C(F)(F)F)cc1 | inactive: -6.3% |
| CSc1ccc(/C=C2\N=C(c3ccco3)OC2=O)cc1 | inconclusive: -26.8% |
| O=S(=O)(Nc1nc2ccccc2nc1NCC1CCCO1)c1cccc(Cl)c1 (configuration not stated) | inactive: -2.9% and inactive: -6.22% |
| COc1cc(/C=C(/C#N)c2ccccn2)c2c(c1)CC(C)O2 (configuration not stated) | inconclusive: -25.2% |
| COc1ccc(C(=O)Oc2ccc(-c3ccccc3)cc2)cc1 | inconclusive: -26.6% |
| CCOc1ccc2nc(N(CCCN(C)C)C(=O)c3ccc(S(=O)(=O)N4CCCC4)cc3)sc2c1 | inactive: -3.87% |
| N#CCCN(C(=O)Cn1nc(C(=O)O)c2ccccc2c1=O)c1ccccc1 | active: -31.8% |
| COc1ccc(/C=C2\CCCC3C2=NN(C(=O)c2scnc2C)C3c2ccc(OC)c(OC)c2)cc1OC (configuration not stated) | inactive: -2.29% |
| COc1ccc(Nc2nc(-c3ccc(CNC(C)=O)cc3)cs2)cc1 | inconclusive: -28.4% |
| COc1ccccc1C(c1nnnn1CC1CCCO1)N1CCC(C(N)=O)CC1 (configuration not stated) | inactive: 0.377% |
| Cc1csc(NC(=O)CN2CCCCCC2)n1 | inconclusive: -33.2% |
| COc1ccc(S(=O)(=O)N2CCSC2c2cc(OC)ccc2OC)cc1 (configuration not stated) | inactive: -4.11% |

| Compound | activity change |
| --- | --- |
| Cc1sc2ccccc2[n+]1CCCCI | inconclusive: -35.8% |
| CCN1CCN(C(=O)C2c3cc(OC)c(OC)cc3C(=O)N3CCc4ccccc4C23)CC1 (configuration not stated) | inactive: -0.497% |
| S=C(c1cccs1)N1CCN(c2ccccc2)CC1 | inactive: -17.4% |
| COc1cc(C(=O)Nc2ccc3oc(=O)ccc3c2)cc(OC)c1OC | inactive: -10.2% |
| CCC(CC)NCC(O)COc1ccc(Br)cc1 (configuration not stated) | inconclusive: -29.1% |
| O=C(Oc1ccc2c(c1)O/C(=C\c1cccs1)C2=O)c1ccco1 | inconclusive: -27.6% |
| Cc1ccc(NS(=O)(=O)c2cc(NC(=O)Cc3n[nH]c(=O)c4ccccc34)ccc2C)c(C)c1 | inactive: -1.87% |
| COc1cccc(CN(C)CC(=O)NCc2ccc(C)cc2)c1 | inconclusive: -29.2% |
| CCN(CC)S(=O)(=O)c1cccc(NS(=O)(=O)c2ccc3ccccc3c2)c1 | inconclusive: -26.2% |
| CC(NCc1cccs1)C(=O)NC1CCCCC1 (configuration not stated) | inconclusive: -25.5% |
| CCOC(=O)N1CCN(C/C(C)=C/c2ccccc2)CC1 | inconclusive: -28.2% |
| O=C(CN1CCC2(CC1)OCCO2)Nc1cc(Cl)cc(Cl)c1 | inconclusive: -26.7% |
| CCOc1c(Cl)cc(C(=O)NC(C)Cn2cccn2)cc1OC (configuration not stated) | inconclusive: -27.4% |
| COc1ccc(C(=O)Oc2ccc(C)cc2C(=O)/C=C/c2ccc(F)cc2)cc1 | inconclusive: -26.5% |
| Cc1ccccc1OCC(=O)NN1C(=O)C2C3C=CC(O3)C2C1=O (configuration not stated) | inactive: -3.25% |
| O=C(NCC1CCCCC1)c1ccncc1 | inconclusive: -25.3% |
| Cc1cc(=O)oc2cc(OCC(=O)N3CCc4sccc4C3c3ccccc3)ccc12 (configuration not stated) | inactive: -1.03% |
| Cc1ccccc1Cn1cc(CCC(=O)NC2CC2)c2ccccc21 | inconclusive: -26.1% |
| O=C(Nc1cccc(Cl)c1)c1c(NC(=O)C(F)(F)F)sc2c1CCCC2 | inconclusive: -27.3% |
